# Several values for one entry are separate records, joined by “and”; a condition that tells them apart may be missing. Identical values can stand only once. The whole screen tested about 420,000 compounds, of which about 50,000 (12%) were called active. The shares of active, inactive and inconclusive entries below differ from those in the screen. Calls come from the whole dose curve; as a rule, active = well fitted inhibition curve with a large enough effect; inconclusive = small, poorly fitted or top-dose-only effect; inactive = flat fitted curve, though single readings scatter. Potencies of inconclusive entries are left out as doubtful fits.
# Assay: qHTS for Inhibitors of human tyrosyl-DNA phosphodiesterase 1 (TDP1): qHTS in cells in presence of CPT; note: nearly all actives have a fitted effect of over 55% in size
# Settings: chicken DT40 Tdp1-/-;hTDP1 cells + 20 nM CPT, ATP luminescence, 48 h; activity change, negative = growth inhibition: at 46.2 µM (top of the series) unless noted
# Method in brief: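 Chicken DT40 Tdp1-/- cells complemented with human TDP1, 400 cells/well, exposed to compounds plus 20 nM camptothecin for at least 48 h at 37 C; viability read as ATP content by CellTiter-Glo luminescence.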
# % is set by controls: 0 for no effect and ±100 for the full control effect; potency is the fitted concentration of half-maximal effect; tags give direction and shape of the fitted curve.
Compound,"activity change, negative = growth inhibition",Potency
CCCCn1c(N)c(N(C)C(=O)c2ccc(OCC3CCCO3)cc2)c(=O)[nH]c1=O (configuration not stated),inactive: 1.26%,–
COC(=O)c1c(NC(=O)c2cc(=O)c3ccc(C)c(C)c3o2)sc2c1CCCC2,inactive: 3.22%,–
O=C(Nc1cccnc1Cl)c1ccc2c(Cl)c3c(nc2c1)CCC3,–,"inconclusive [inhibitor, single point]"
COc1ccc(CCNC(=O)CN(c2ccccc2OC)S(=O)(=O)c2ccc(C)cc2)cc1,–,active: 18.4 µM and active: 20.6 µM
O=C(COc1ccc2c3c(c(=O)oc2c1)CCC3)NC1CCCCC1,–,"inconclusive [inhibitor, partial curve]"
CC(C)CCOc1ccc(C(=O)NCC(c2cccs2)N2CCOCC2)cc1 (configuration not stated),–,"inconclusive [inhibitor, single point]"
COc1ccc(CNC(=O)C2CC(=O)N(c3ccc(OCC(=O)N4C(C)CCCC4C)cc3)C2)cc1 (configuration not stated),inactive: -3.02%,–
CCCCNC(=O)c1nc(-c2ccccc2)oc1-c1ccc(Cl)cc1,–,"inconclusive [inhibitor, single point]"
COc1ccc(CCNC(=O)Cc2c(C)c3c(cc(C)c4c(C)coc43)oc2=O)cc1,–,"inconclusive [inhibitor, partial curve]"
CC(C)Cc1nc(N2CCOCC2)c(C#N)c2c1COC(C)(C)C2,inactive: -14.4%,–
C=CCSc1nnc(-c2ccncc2)n1-c1ccc(OCC)cc1,inactive: -8.6%,–
CC(C)c1ccc(NC2CCCN(C(=O)c3cccc(N4CCNC4=O)c3)C2)cc1 (configuration not stated),–,"inconclusive [inhibitor, single point]"
Cc1ccc(S(=O)(=O)n2cc(-c3ccccc3)c(N)n2)cc1,–,"inconclusive [inhibitor, single point]"
Cc1cccc(N2C(=O)C3CCC(c4ccccc4)CC3C2=O)c1 (configuration not stated),inactive: 10.5%,–
CCCC(=O)c1ccc(N2CCN(C(=O)c3ccc(Br)cc3)CC2)c(F)c1,–,active: 23.1 µM
COc1ccc(CCN2CC(C(=O)NCCCn3nc(C)cc3C)CCC2=O)cc1 (configuration not stated),inactive: -21%,–
CSCC[C@H](NC(=O)[C@@H]1Cc2c([nH]c3ccccc23)C2c3ccccc3C(=O)N21)C(=O)NCC1CCCO1 (some centres not stated),–,"inconclusive [inhibitor, single point]"
Cc1ccc(NC(=O)CN2C(=O)CSc3ccc(S(=O)(=O)N4CCCC4)cc32)cc1F,–,"inconclusive [inhibitor, single point]"
Cc1cc(OCCCn2cnc3ccccc3c2=O)ccc1[N+](=O)[O-],–,"inconclusive [inhibitor, partial curve, poor fit]"
CCCCOc1ccc(C(=O)OCC(=O)c2c(N)n(C)c(=O)n(C)c2=O)cc1,inactive: -18.5%,–
O=C(Cc1ccccc1[N+](=O)[O-])NCCC1=CCCCC1,inactive: -4.54%,–
Cn1c(/C=C/c2cccc(Br)c2)nc2ccccc2c1=O,–,active: 29.1 µM
COc1ccc(NC2CC(=O)N(C(C)C)C2=O)cc1 (configuration not stated),inactive: 5.62%,–
Cc1cc(C)nc(/N=C(\N)Nc2ccc(S(=O)(=O)Nc3nccc(C)n3)cc2)n1,inactive: -13.9%,–

Compound,"activity change, negative = growth inhibition",Potency
CC(=O)Oc1cc2c(C(=O)NCc3ccncc3)c(C)oc2c2ccccc12,–,"inconclusive [inhibitor, single point]"
COc1cccc(CSc2nc3cc4c(cc3cc2C)OCCO4)c1,–,"inconclusive [inhibitor, single point]"
N#Cc1cnn(-c2nc3sc4c(c3c(=O)[nH]2)CCCC4)c1N,–,active: 20.6 µM
Cc1ccc(CN2CCN(C(=O)c3ccco3)CC2)cc1,inactive: -10%,–
Cn1c(=O)c(-c2cccs2)nc2cnc(N3CCOCC3)nc21,inactive: 9.36%,–
O=C(NC(=S)Nc1ccc(N2CCOCC2)c(Cl)c1)c1cccs1,–,"inconclusive [inhibitor, single point]"
CCOc1ccc(/C=N/NC(=O)c2cc(-c3ccco3)nc3ccccc23)cc1,–,"inconclusive [inhibitor, partial curve]"
CC1=CC(C)(C)N2C(=O)C3(C(C#N)=C(N)Oc4cc(O)ccc43)c3c(C)c(C)cc1c32 (configuration not stated),–,"inconclusive [inhibitor, single point]"
NC1(C(=O)O)CSSC1,inactive: -118%,–
CSc1oc(-c2ccco2)nc1S(=O)(=O)c1ccc(C)cc1,inactive: 1.78%,–
CCCOC(=O)Nc1nnc(CCC)s1,inactive: -2.73%,–
Cc1ccc(S(=O)(=O)NN=Cc2ccc(N3CCOCC3)cc2)cc1[N+](=O)[O-],–,"inconclusive [inhibitor, single point]"
COCCN(Cc1cc2cc(C)c(C)cc2nc1Cl)C(=O)Nc1ccccc1,–,"inconclusive [inhibitor, single point]"
COc1ccc(/C=C(/NC(=O)c2ccccc2)C(=O)Nc2cccc(C(=O)O)c2)cc1,inactive: 2.84%,–
CC(=O)OC1CC(OC(C)=O)[C@]2(C)C(CC(OC(C)=O)[C@]3(C)C2CC[C@@]2(C)C(c4ccoc4)OC(=O)C4O[C@]432)C1(C)C (some centres not stated),–,"inconclusive [inhibitor, single point]"
C=CCC(C)(NCc1ccccc1)c1ccccc1 (configuration not stated),–,"inconclusive [inhibitor, single point]"
CC(C)c1ccccc1OCCCCCNCCO,–,"inconclusive [inhibitor, single point]"
COc1ccc(Br)cc1CNC(=O)Cn1c(=O)c2cccn2c2ccc(F)cc21,–,active: 4.61 µM
Cc1ccc(S(=O)(=O)/N=C/c2c(O)ccc3ccccc23)cc1,inconclusive: 5.13% [inhibitor],–
COc1cccc(-c2cn3c(n2)sc2cc(C(=O)NC4CCCCCC4)ccc23)c1,–,"inconclusive [inhibitor, partial curve]"
O=C(Cc1ccc(F)cc1)NC1CC(=O)N(c2ccc3c(c2)OCCO3)C1 (configuration not stated),inactive: -19.9%,–
Clc1ccc(CSc2nnc(NC3=NCCCCC3)s2)cc1,–,"inconclusive [inhibitor, single point]"
COc1ccc(C(=O)Oc2cccc(/C=N/NC(N)=S)c2)cc1,–,"inconclusive [inhibitor, single point]"
CCOC(=O)C1=C(C)NC2=C(C(=O)C(C(=O)OCC)C(c3ccco3)C2)C1c1ccccn1 (configuration not stated),inactive: -27.6%,–

Compound,"activity change, negative = growth inhibition",Potency
C=C1C2CC[C@]3(CCC4[C@@]5(C)CCC[C@@]4(CN(CCO)C5)[C@@H]3C2)[C@@H]1O (some centres not stated),inactive: -8.66% [at 9.04 µM],–
O=C(Cn1ncc2c3ccccc3n(Cc3ccc(Cl)cc3)c2c1=O)N1CCCCCC1,–,active: 13 µM
COc1cccc(NC(=O)Nc2cc(NC(=O)Nc3cccc(OC)c3)c(C)nc2C)c1,inactive: 4.09%,–
COc1ccc(O)c(/C=N/NC(=S)NCCc2ccccc2)c1,–,"inconclusive [inhibitor, single point]"
Cc1cc(C)cc(Oc2coc3cc(OC(=O)c4cccnc4)ccc3c2=O)c1,–,"inconclusive [inhibitor, full curve]"
COc1ccc(C2C(C(N)=O)=C(C)Nc3nc(CCCO)nn32)cc1OC (configuration not stated),–,"inconclusive [inhibitor, single point]"
CC(C)c1ccc(CN2CCN(C(=O)CCl)CC2)cc1,–,active: 1.16 µM
CCCCn1c(N)c(N(CCOC)C(=O)c2ccc(N3CCCC3)c([N+](=O)[O-])c2)c(=O)[nH]c1=O,inactive: 0.647%,–
CSCCC(NS(=O)(=O)c1ccc2c(c1)OCCO2)C(=O)N(C)Cc1ccc(F)cc1 (configuration not stated),–,active: 23.1 µM
Cc1ccc(S(=O)(=O)N(CC(=O)Nc2ccccc2C(=O)O)c2cccc(Cl)c2C)cc1,–,"inconclusive [inhibitor, partial curve]"
Cc1ccc(Cn2nnc3c(=O)n(CC(=O)N4CCN(c5ccccc5)CC4)cnc32)cc1,–,active: 20.6 µM
Cc1cc(C)c2oc(-c3cccc(NC(=O)c4ccc(Br)o4)c3)nc2c1,–,"inconclusive [inhibitor, single point]"
CC(C(c1ccc2c(c1)OCO2)c1c(N)n(C)c(=O)n(C)c1=O)[N+](=O)[O-] (configuration not stated),–,"inconclusive [inhibitor, single point]"
Cc1ccccc1Cn1cc(CCC(=O)NC(C)c2ccccc2)c2ccccc21 (configuration not stated),–,active: 13 µM
CC(C)(C)c1ccc(S(=O)(=O)N2CCC(c3nc4ccc(Cl)cc4[nH]3)CC2)cc1,–,"inconclusive [inhibitor, single point]"
CSC1=NCCN1C(=O)C12CC3CC(CC(C3)C1)C2,–,"inconclusive [inhibitor, single point]"
COc1cc2nc(N3CCCCC3)nc(NC3CCN(C)CC3)c2cc1OC,–,active: 7.94 µM
CC(=O)N1c2ccc(S(=O)(=O)NCC3CCC(C(=O)NC(C)(C)C)CC3)cc2CC1C (configuration not stated),–,"inconclusive [inhibitor, single point]"
Cc1ccc(S(=O)(=O)N(CC(=O)Nc2ccc(C(C)C)cc2)Cc2ccccc2)cc1,–,"inconclusive [inhibitor, single point]"
COc1ccc(C2OC(=O)CC2C(=O)NCc2ccc(C)cc2)cc1OC (configuration not stated),inactive: 9.88%,–
CCOC(=O)N1CCN(C(=O)COC(=O)c2ccc(S(=O)(=O)N(CC)CC)cc2)CC1,inactive: 0.645%,–
CN(C)/C=C(\C#N)C(=O)N/N=C/c1ccc(F)cc1,inactive: 6.85%,–
O=C(NCC1CCN(C(=O)c2ccc([N+](=O)[O-])cc2)CC1)C(=O)Nc1ccccc1,–,"inconclusive [inhibitor, single point]"
Clc1ccccc1N1CCN(c2ncnc3c2c(-c2ccccc2)cn3-c2ccccc2)CC1,–,"inconclusive [inhibitor, partial curve]"

# From PubChem BioAssay AID686979 (National Center for Advancing Translational Sciences (NCATS), 2013)
